The antibiotic and cytotoxicity screens of Wong et al. (2023)
The list shows a part of the results.

test system: HSkMC (human skeletal muscle cells); experiment: cytotoxicity call (relative viability < 0.9); settings: 10 µM

| Structure (SMILES) | cytotoxicity call |
| --- | --- |
| C[C@@H]1CN([C@H](C)CO)S(=O)(=O)c2ccc(C#Cc3cccnc3)cc2O[C@@H]1CN(C)C(=O)CN(C)C | inactive |
| O=C(NCC(F)(F)F)[C@@H]1c2ccccc2C(=O)N(Cc2cc(C(F)(F)F)cc(C(F)(F)F)c2)[C@H]1c1ccc(CO)cc1 | inactive |
| C[C@@H]1CN([C@@H](C)CO)C(=O)c2cccc(NC(=O)Nc3ccc(F)cc3)c2O[C@@H]1CN(C)Cc1ccc(Cl)c(Cl)c1 | active |
| C[C@H](CO)N1C[C@H](C)[C@@H](CN(C)S(=O)(=O)c2ccccc2F)Oc2ncc(C#Cc3ccncc3)cc2C1=O | inactive |
| C[C@@H]1CN([C@H](C)CO)C(=O)c2cc(NC(=O)Nc3cccc4ccccc34)ccc2O[C@H]1CN(C)Cc1ccncc1 | inactive |
| C[C@@H]1CCCCO[C@@H](CN(C)CC2CCCCC2)[C@H](C)CN([C@H](C)CO)C(=O)c2cc(NC(=O)Cc3ccccc3)ccc2O1 | inactive |
| Cc1noc(C)c1S(=O)(=O)Nc1ccc2c(c1)C(=O)N([C@H](C)CO)C[C@H](C)[C@@H](CN(C)Cc1ccc3c(c1)OCO3)O2 | inactive |
| CCCN(C)C[C@H]1Oc2cc(C#Cc3ccccc3OC)ccc2S(=O)(=O)N([C@@H](C)CO)C[C@H]1C | inactive |
| C[C@@H]1CN([C@H](C)CO)C(=O)c2cc(-c3cncnc3)cnc2O[C@H]1CN(C)C(=O)Nc1ccc2c(c1)OCO2 | inactive |
| C[C@@H]1CN([C@@H](C)CO)C(=O)c2cccc(NS(=O)(=O)c3ccccc3)c2O[C@H]1CN(C)Cc1ccncc1 | inactive |
| C[C@@H]1CN([C@H](C)CO)C(=O)c2cc(NS(=O)(=O)c3cn(C)cn3)ccc2O[C@@H](C)CCCCO[C@H]1CN(C)S(=O)(=O)c1cn(C)cn1 | inactive |
| CC(C)C(N)C(=O)OCCOCn1cnc2c(=O)[nH]c(N)nc21.Cl (stereo not drawn) | inactive |
| C[C@@H]1CCCCO[C@@H](CN(C)Cc2ccccc2)[C@H](C)CN([C@@H](C)CO)C(=O)c2cc(NS(=O)(=O)c3ccc(Cl)cc3)ccc2O1 | inactive |
| COc1ccc(CC2c3cc(OC)c(OC)cc3CC[N+]2(C)CCC(=O)OCCCCCOC(=O)CC[N+]2(C)CCc3cc(OC)c(OC)cc3C2Cc2ccc(OC)c(OC)c2)cc1OC.O=S(=O)([O-])c1ccccc1.O=S(=O)([O-])c1ccccc1 (stereo not drawn) | inactive |
| CN(CC=CC#CC(C)(C)C)Cc1cccc2ccccc12.Cl | inactive |
| C[C@@H]1CN([C@@H](C)CO)C(=O)c2cccc(NS(=O)(=O)c3ccccc3)c2O[C@H]1CN(C)S(=O)(=O)c1cccs1 | inactive |
| Cc1noc(C)c1NC(=O)Nc1cccc2c1O[C@@H](CN(C)Cc1ccc(C(=O)Nc3ccccc3N)cc1)[C@@H](C)CN([C@H](C)CO)C2=O | inactive |
| C[C@H]1CN([C@@H](C)CO)C(=O)Cc2cc(NC(=O)Cc3cn(C)c4ccccc34)ccc2O[C@@H]1CN(C)S(C)(=O)=O | inactive |
| CC(NCCc1ccc(O)cc1)C(O)c1ccc(O)cc1.Cl (stereo not drawn) | inactive |
| COc1ccc(S(=O)(=O)Nc2ccc3c(c2)CC(=O)N([C@H](C)CO)C[C@H](C)[C@@H](CN(C)Cc2ccc(-c4ccccc4)cc2)O3)cc1 | inactive |
| O=C(C[C@H]1C[C@H]2c3cc(NS(=O)(=O)c4ccc(F)cc4)ccc3O[C@H]2[C@H](CO)O1)NCc1ccc(Oc2ccccc2)cc1 | inactive |
| CCN(CC)CCNC(=O)c1cc(Br)c(N)cc1OC | inactive |
| C/C=C/c1ccc2c(c1)O[C@@H](CN(C)S(=O)(=O)c1ccccc1OC)[C@H](C)CN([C@@H](C)CO)S2(=O)=O | inactive |
| Cc1ccc(S(=O)(=O)Nc2ccc3c(c2)C(=O)N([C@@H](C)CO)C[C@H](C)[C@H](CN(C)C(=O)Nc2cccc4ccccc24)O3)cc1 | inactive |
| COc1ccc(S(=O)(=O)N(C)C[C@@H]2OCCCC[C@H](C)Oc3ccc(NC(=O)Nc4ccc(C(F)(F)F)cc4)cc3C(=O)N([C@@H](C)CO)C[C@H]2C)cc1 | inactive |
| CN1CCN(C(=O)C[C@H]2CC[C@@H]3[C@@H](COc4ccc(NC(=O)c5cccs5)cc4C(=O)N3C)O2)CC1 | inactive |
| COc1ccc(NC(=O)Nc2ccc3c(c2)C(=O)N([C@H](C)CO)C[C@@H](C)[C@@H](CN(C)S(=O)(=O)c2cccs2)OCCCC[C@H](C)O3)cc1 | inactive |
| C[C@H]1CN([C@@H](C)CO)C(=O)c2c(c3ccccc3n2C)-c2ccccc2CO[C@@H]1CN(C)Cc1cccc(C(=O)O)c1 | inactive |
